Results reported in article PMC4336329 (PLoS ONE, 2015).
The campaign covered roughly 310,000 compounds. About 2,200 (0.71%) showed an effect of 50% or more. The effect is printed as a negative number. The list shows a part of the results.

What follows are compounds tested against human ether-à-go-go-related gene (hERG) potassium channel (human, UniProt Q12809) (assay: primary screen, population patch clamp on CHO cells stably expressing hERG).
Chain of human ether-à-go-go-related gene (hERG) potassium channel (Q12809 whole entry, looked up): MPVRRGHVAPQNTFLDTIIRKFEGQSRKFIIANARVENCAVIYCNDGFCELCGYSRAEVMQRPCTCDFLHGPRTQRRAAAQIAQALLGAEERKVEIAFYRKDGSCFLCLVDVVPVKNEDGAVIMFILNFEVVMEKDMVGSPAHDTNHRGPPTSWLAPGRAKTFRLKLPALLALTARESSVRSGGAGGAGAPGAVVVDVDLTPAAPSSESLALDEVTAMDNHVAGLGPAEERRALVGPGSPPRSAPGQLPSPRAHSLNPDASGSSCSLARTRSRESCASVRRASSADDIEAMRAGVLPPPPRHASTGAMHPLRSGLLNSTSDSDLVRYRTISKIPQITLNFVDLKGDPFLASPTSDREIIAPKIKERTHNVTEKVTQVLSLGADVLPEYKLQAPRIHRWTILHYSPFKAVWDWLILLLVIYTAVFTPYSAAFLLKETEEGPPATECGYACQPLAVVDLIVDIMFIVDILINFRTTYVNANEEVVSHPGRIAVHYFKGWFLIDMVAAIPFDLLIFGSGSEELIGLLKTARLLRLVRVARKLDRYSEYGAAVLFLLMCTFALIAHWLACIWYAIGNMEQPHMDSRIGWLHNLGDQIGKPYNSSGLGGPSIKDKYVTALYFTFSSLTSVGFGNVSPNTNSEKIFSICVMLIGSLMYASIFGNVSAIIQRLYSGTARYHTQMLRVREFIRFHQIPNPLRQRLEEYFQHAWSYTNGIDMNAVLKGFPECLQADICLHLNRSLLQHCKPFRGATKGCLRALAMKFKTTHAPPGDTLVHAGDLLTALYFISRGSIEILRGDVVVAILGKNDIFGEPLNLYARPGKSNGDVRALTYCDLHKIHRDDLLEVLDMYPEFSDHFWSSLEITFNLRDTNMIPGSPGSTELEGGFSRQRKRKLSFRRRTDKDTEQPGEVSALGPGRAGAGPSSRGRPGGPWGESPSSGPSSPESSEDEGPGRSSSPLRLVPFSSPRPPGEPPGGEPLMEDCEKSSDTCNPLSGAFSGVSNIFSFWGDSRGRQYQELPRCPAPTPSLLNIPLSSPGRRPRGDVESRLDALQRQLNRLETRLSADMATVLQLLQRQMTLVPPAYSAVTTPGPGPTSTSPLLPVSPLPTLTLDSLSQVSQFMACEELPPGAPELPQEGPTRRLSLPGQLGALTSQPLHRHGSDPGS

Row | SMILES | hERG current change (%, negative = inhibition) at 1uM [%]
1 | CC(C)C(=O)Nc1cc(=O)[nH]c2ncnn12 | 5.7
2 | Cc1ccc2cc3c(N)c(C(=O)N4CC(=O)Nc5ccccc54)sc3nc2c1 | 18.6
3 | CC(Nc1nc(-c2ccccc2O)nc2ccccc12)c1ccccc1 (centres unmarked) | 8.76
4 | Cc1nc(-c2ccccc2)sc1C(=O)Nc1ccc(S(N)(=O)=O)cc1 | 13.1
5 | Br.CCCn1c(=N)n(CC(=O)O)c2ccccc21 | -1.05
6 | Cc1cccc(NC(=S)NNC(=O)c2csc(C)c2)c1 | 5.34
7 | CCCCN(CCCC)C(=O)c1cn(CC)c2cc(N3CCN(C)CC3)c(F)cc2c1=O.Cl | 9.42
8 | O=C(c1cccc(C(=O)N2CCC(O)(c3ccccc3)CC2)c1)N1CCC(O)(c2ccccc2)CC1 | 10
9 | Cn1ncc2c(Nc3ccccc3Cl)nc(Cl)nc21 | 4.37
10 | CCN(CCO)Cc1csc2c(Br)cccc12.Cl | -4.13
11 | CCOC(=O)c1ccccc1NC(=S)N1CCC(C)CC1 | -4.05
12 | C[C@]12CCC(=O)C=C1CC[C@@H]1[C@@H]2CC[C@]2(C)C(=O)CC[C@@H]12 | 9.64
13 | CCn1nnnc1SCC(=O)N1c2ccccc2NC(=O)CC1C (centres unmarked) | 9.79
14 | Cc1ccc(-c2csc(NC(=S)NC(=O)c3cccs3)n2)cc1 | 17.6
15 | CC(/C=N/NC(=O)c1sc(N)nc1C)=C\c1ccccc1 | 8.09
16 | CCCCOC(=O)NC1CCS(=O)(=O)C1 (centres unmarked) | 17.9
17 | CCN(CC(=O)Nc1ccccc1C(F)(F)F)C(=O)CCOc1ccc(C)cc1 | 10.8
18 | COc1ccc(N(C(=O)Cn2nnc3ccccc32)C(C(=O)NCc2ccco2)c2cccnc2)cc1 (centres unmarked) | 4.47
19 | Cc1ccc(NC(=O)CO/N=C(\N)c2nonc2N)cc1 | 13.3
20 | O=C(c1ccco1)N1CCc2ccccc21 | 5.88
21 | CCc1cccc(CC)c1-n1c(SCn2nnc3ccccc3c2=O)nnc1-c1cccnc1 | -1.63
22 | COc1ccc(C(c2nnnn2C(C)C)N2CCN(C(=O)c3ccco3)CC2)cc1 (centres unmarked) | 12.1
23 | O=c1cc(C(F)(F)F)[nH]c2c(C(F)(F)F)cccc12 | 12.5

Row | SMILES | hERG current change (%, negative = inhibition) at 1uM [%]
24 | CCOCCCNC(=O)C(c1ccc(C)cc1)N(Cc1cccs1)C(=O)CNC(C)=O (centres unmarked) | -13.7
25 | COc1ccccc1NC(=O)C1CCCN(S(=O)(=O)c2ccc3[nH]c(=O)ccc3c2)C1 (centres unmarked) | -26.6
26 | COC(=O)Cc1c(C)nc2nc(NCc3ccccc3OC)[nH]n2c1=O | 9.71
27 | CC(C)c1ccc(O)c(NC(=S)NC(=O)c2ccc3c(c2)OCO3)c1 | 0.875
28 | CC(SCC(=O)O)c1nc2ccccc2[nH]1 (centres unmarked) | 11.2
29 | COc1ccc(-c2nnc(SCC(=O)N3CCCC3)o2)cc1OC | 5.37
30 | CC(=O)c1ccc(N2CCCCCC2)c(F)c1 | 0.156
31 | O=S1(=O)CCOC[C@H](CC2CCCCC2)N1Cc1cccc(C(F)(F)F)c1 | 9.51
32 | Cc1ccc(Cn2nc(C)c(NC(=O)c3cc(-c4ccc5c(c4)OCO5)on3)c2C)cc1 | 10.7
33 | COCCN(C(=O)C(=O)NC1CCCC1)C(C(=O)NC1CCCC1)c1ccccc1F (centres unmarked) | 13.5
34 | CCOC(=O)N1CCC(NC(=O)c2ccc(CS(=O)c3cccc(Cl)c3)o2)CC1 (centres unmarked) | 16
35 | Cc1ccc(C)c2sc(NC(=O)c3nc4ccccc4s3)nc12 | 2.28
36 | O=C(Nc1ccccc1)N1CCSCC1 | 4.03
37 | Cn1c(SCC(=O)c2c(N)n(C)c(=O)n(C)c2=O)nnc1-c1ccccc1 | -3.99
38 | O=S(=O)(NCC(c1cccnc1)N1CCN(c2ccccc2)CC1)c1cc(F)ccc1F (centres unmarked) | -16.8
39 | Cc1nc(C)c(-c2ccn(C(=O)NC(C)C)n2)s1 | 10.1
40 | Cc1ccccc1Cc1n[nH]c(=S)n1N | 12.5
41 | O=C(c1ccc2c3n(nc2c1)-c1ccccc1CO3)N1CCOCC1 | 0.232
42 | O=C(CSc1nc2ccccc2[nH]1)N/N=C/C=C\c1ccccc1[N+](=O)[O-] | 5.11
43 | O=C(/C=C/c1ccco1)Nc1cccc(C(=O)Nc2ccccc2C(=O)O)c1 | 3.04
44 | O=C(CSc1cccc[n+]1[O-])NC(=O)c1ccc(OC(F)F)cc1 | 9.68
45 | O=C(NNC(=O)C1CC(c2cccs2)=NO1)Nc1ccccc1 (centres unmarked) | 5.54
46 | CCOc1ccccc1N1CCN(C(=O)c2ccc(NS(=O)(=O)c3ccc4[nH]c(=O)[nH]c4c3)cc2)CC1 | 7.56

Row | SMILES | hERG current change (%, negative = inhibition) at 1uM [%]
47 | COc1ccc(OCC(O)CNC(=O)c2ccc(C)cc2)cc1 (centres unmarked) | 12.1
48 | CC(CCc1ccccc1)NC(=O)/C=C/c1ccccc1 (centres unmarked) | 5.62
49 | O=C(O)C1CCCCC1C(=O)NCCc1ccc(F)cc1 (centres unmarked) | 12.7
50 | CSc1nc(N)c(C(=O)Nc2ccc([N+](=O)[O-])cc2)s1 | 1.39
51 | C/C=C/C=C/C(=O)[C@@H]1[C@@H]([C@]2(C)OC(=O)C(C)=C2O)[C@H]2/C(=C(O)/C=C/C=C/C)C(=O)[C@]1(C)C(=O)C2(C)O (some centres unmarked) | 6.53
52 | O=C(CN1CCOc2ccccc21)NC1CC1 | -1.91
53 | CC(=O)Nc1nnc(SCc2ccc(F)cc2)s1 | 15.3
54 | CC(O)Cc1cn(CC(=O)N2CCNCC2)nn1.Cl (centres unmarked) | 7.68
55 | CC1=CCC2C(=O)N(c3ccccc3OC(=O)c3ccccc3F)C(=O)C2C1 (centres unmarked) | -5.19
56 | CCN(C(=O)COC(=O)CSc1ccc(F)cc1)c1c(N)n(Cc2ccccc2)c(=O)[nH]c1=O | 9.5
57 | Fc1ccc(OCc2cc(-c3ccccc3)no2)cc1 | 15.7
58 | CCOc1ccccc1CNC(=O)c1nn(C)c2c1CS(=O)(=O)c1ccccc1-2 | 13.3
59 | Cc1cccc(-c2cc(=O)c(C(=O)O)cn2-c2ccc(F)cc2F)c1 | 9.46
60 | Cc1ccc(/C=C2\SC(=S)N(CCCC(=O)Nc3nccs3)C2=O)cc1 | 14.1
61 | COc1ccc(NC(=S)NCCSc2ccc(Cl)cc2)c(OC)c1 | 3.18
62 | N#Cc1cccc(C#N)c1Oc1ccc(N)cc1 | 10.9
63 | CCOc1ccc(CCNC(=O)COC(=O)CSc2ccccc2C)cc1OCC | 4.92
64 | N#C/C(=C/c1cc(Br)cs1)C(=O)NCC1CCCO1 (centres unmarked) | 2.65
65 | Cc1ccc(S(=O)(=O)N(C)C)cc1NC(=O)C(C)OC(=O)c1ccc2c(c1)OCCO2 (centres unmarked) | 9.13
66 | O=C(Nc1cccc(C(F)(F)F)c1)/C(=C/c1ccco1)NC(=O)c1cccs1 | -3.16
67 | CCOc1ccc(S(=O)(=O)Nc2ccc(C(=O)N3CC(C)OC(C)C3)cc2)cc1 (centres unmarked) | 10.6
68 | CCn1cc(C(=O)NCc2ccccc2)c2ccccc21 | 18.8
69 | COC(=O)c1c(C)[nH]c(C(=O)C(C)OC(=O)C2CC2)c1C (centres unmarked) | 10

Row | SMILES | hERG current change (%, negative = inhibition) at 1uM [%]
70 | COc1ccc(C(=O)Nc2c(N)nc(SCC(=O)c3ccccc3)[nH]c2=O)cc1 | 15.2
71 | COc1cc(C(=O)NC2CCN(Cc3ccccc3)CC2)cc(Cl)c1OC(C)C | -21.2
72 | CC1CN(S(=O)(=O)c2cccc(C(=O)OCc3cc(=O)oc4cc(O)ccc34)c2)CC(C)O1 (centres unmarked) | 8.28
73 | O=C(CN1CCCCC1)N1N=C(c2cccs2)CC1c1cccs1 (centres unmarked) | -5.93
74 | COc1cc(C(=O)NNC(=O)c2cc(S(=O)(=O)N(C)C)ccc2N2CCCC2)cc(OC)c1OC | 16.2
75 | COc1ccc2cc(CCNC(=O)C(C)C)c(=O)[nH]c2c1 | 14.5
76 | CC(C)[C@H](NC(=O)N1CC(=O)Nc2ccccc21)C(=O)N1CCC[C@H]1C(=O)O | 14.1
77 | CC1=C(C(=O)OC2CCCCC2)C(c2cccs2)n2c(nc3ccccc32)N1 (centres unmarked) | -1.23
78 | CN=C(SCC(=O)c1cccc(Cl)c1)c1c(O)n(C)c(=O)n(C)c1=O | 2.8
79 | CCOc1ccc2oc(C(=O)NNC(=O)c3ccccc3O)c(C)c2c1 | 10.9
80 | Cn1c(Cc2ccccc2)nnc1SCC(=O)N1CCN(c2ccccc2)CC1 | 6.18
81 | CCc1cc(=O)oc2cc(C)c3c(C)coc3c12 | 12.7
82 | COc1ccc(-c2cc3nc4n(c(=O)c3s2)CCC4)cc1 | 12.2
83 | O=C1N2CCSC2=NC1(Nc1nccs1)C(F)(F)F (centres unmarked) | 12.2
84 | C=CCOC(=O)C1=C(C)N=C2SCCC(=O)N2C1c1cccs1 (centres unmarked) | 4.5
85 | O=C(CCN1C(=O)C2CCCCC2C1=O)N1CCN(S(=O)(=O)c2ccccc2)CC1 (centres unmarked) | 8.23
86 | Cc1ccc(NC(=O)CN(C)C(=O)CCSc2ccc(F)cc2)cc1 | 5.57
87 | COC(CNC(=O)c1ccc2c(=O)n(Cc3ccc4c(c3)OCO4)c(=S)[nH]c2c1)OC | 10.7
88 | CCOc1ccc(NC(=O)CN(c2cc(C)cc(C)c2)S(=O)(=O)c2c(C)noc2C)cc1 | 1.6
89 | COc1ccc(C2CC(Cn3cc(C#N)c(=O)n(C)c3=O)ON2C)cc1 (centres unmarked) | 15.9
